Laboratory results taken from the RNAGym collection of RNA variant scans (doi:10.7554/elife.90254).
The source gives no read counts; variants with many changes may rest on few reads.

B1: LINE1-mini (parent)
chain: GGCAGAGCUCAACACAGCGUGGCAAAGUGGCUGUGGCUAGACUGCC

Variants of: B1
Test: self-cleavage, relative activity (ratio to wild type); higher = more cleavage; in vitro, sequencing; the parent is a self-cleaving ribozyme
With G7C U20A U43A the self-cleavage was 0.19. For G7C U20C A26U, the self-cleavage was 0.01. G7C U20C G22A showed a self-cleavage of 0.04. For G7C U20C G22A U28A, the self-cleavage was 0.05. With G7C U20C G44A C46U the self-cleavage was 0.04. In the case of G7C U20C U34G, the self-cleavage is reported as 0.01. For G7C U20G G40U, the self-cleavage was 0.02. Work on G7C U20G U38C yielded a self-cleavage of 0.07. Variant G7C U28A G33C has a self-cleavage of 0.04. G7C U28C G35C A39G showed a self-cleavage of 0.02. In the case of G7C U28G G40U, the self-cleavage is reported as 0.15. For G7C U32C C46A, the self-cleavage was 0.02. G7C U32C G44A gave a self-cleavage of 0.05. Work on G7C U32G U38A yielded a self-cleavage of 0.34. In the case of G7C U34G G44C, the self-cleavage is reported as 0.01. In the case of G7C U38C A39C, the self-cleavage is reported as 0.14. In the case of G7C U38C G40C, the self-cleavage is reported as 0.01. With G7C U43G C46G the self-cleavage was 0.02. With G7U A11C A14G G27U the self-cleavage was 0. For G7U A11C C18U, the self-cleavage was 0.04. For G7U A11C C23A C37A, the self-cleavage was 0.02. For G7U A11C G17A G22C, the self-cleavage was 0. For G7U A11C G17U C23A G40C A41U, the self-cleavage was 0.01. With G7U A11C G22A C37G the self-cleavage was 0.02. G7U A11G A16U G19C C31G G36A A41C showed a self-cleavage of 0.01. G7U A11G A24U C37U gave a self-cleavage of 0.04. Work on G7U A11G C13U C45G yielded a self-cleavage of 0.03. Variant G7U A11G G22U C23A G27U has a self-cleavage of 0.02. In the case of G7U A11G G27A, the self-cleavage is reported as 0.03. Variant G7U A11G G29U A41G has a self-cleavage of 0.01. G7U A11G G30C C31A U34A U38G gave a self-cleavage of 0. Work on G7U A11U C31A yielded a self-cleavage of 0.01. Work on G7U A11U C31G yielded a self-cleavage of 0.04. For G7U A11U C42A, the self-cleavage was 0.02. For G7U A11U C42G U43A, the self-cleavage was 0.01. G7U A11U G22U U28A C31G showed a self-cleavage of 0.02. Work on G7U A11U G40A yielded a self-cleavage of 0.04. G7U A11U U38C showed a self-cleavage of 0.11. With G7U A12C A14U C42G G44U the self-cleavage was 0.03. G7U A12C A14U G27U showed a self-cleavage of 0.04. In the case of G7U A12C C46A, the self-cleavage is reported as 0.01. G7U A12C G17U G29A gave a self-cleavage of 0.01. Variant G7U A12C U34G has a self-cleavage of 0.07. Work on G7U A12G A14U G17U yielded a self-cleavage of 0.04. In the case of G7U A12G A16U C45U, the self-cleavage is reported as 0.71. G7U A12G A16U U20C C45G gave a self-cleavage of 0.11. Variant G7U A12G A39C has a self-cleavage of 0.02. Variant G7U A12G C15G G29U has a self-cleavage of 0.04. G7U A12G C18U A25C G33U G35U showed a self-cleavage of 0.04. G7U A12G G17C U20G C31U G44C C46U showed a self-cleavage of 0.05. G7U A12G G19A A26G C37A showed a self-cleavage of 0.01. G7U A12G G19C G21U A25C C46A showed a self-cleavage of 0.02. With G7U A12U C13G C18A G19A G27C the self-cleavage was 0.29. G7U A12U G29U gave a self-cleavage of 0.02. G7U A12U G29U G33A showed a self-cleavage of 0.04. G7U A14C C15A C31A showed a self-cleavage of 0.12. G7U A14G A24U G30U showed a self-cleavage of 0.21. In the case of G7U A14G C15A G36C A39U A41G, the self-cleavage is reported as 0.05. In the case of G7U A14G C15G A41G, the self-cleavage is reported as 0.02. With G7U A14G C18G U20A G21C U38A C42U the self-cleavage was 0.12. Variant G7U A14G G17A G27U A41C has a self-cleavage of 0.03. G7U A14G G29C G33U G44C C46A showed a self-cleavage of 0.24. Variant G7U A14G U20C G22A has a self-cleavage of 0.04. G7U A14U C37U gave a self-cleavage of 0.05. Work on G7U A14U G17A C31A yielded a self-cleavage of 0.47. G7U A14U G40U U43G gave a self-cleavage of 0.1. Work on G7U A16C C18G U20C G35U G40C yielded a self-cleavage of 0.06. For G7U A16C G30U U32A G33C, the self-cleavage was 0.05. Variant G7U A16C U28C has a self-cleavage of 0.13. With G7U A16C U28G A41G the self-cleavage was 0.04. For G7U A16G A24G G27A G30U, the self-cleavage was 0.01. G7U A16G C18A gave a self-cleavage of 0.31. For G7U A16G C18U A24G G29C C31A A39C, the self-cleavage was 0.27. G7U A16U C18U showed a self-cleavage of 0.02. Variant G7U A16U G22U A26G C42G C45G has a self-cleavage of 0.1. Variant G7U A16U G29U C31A has a self-cleavage of 0.05. For G7U A16U U28C G30A, the self-cleavage was 0.04. For G7U A16U U38A G40C, the self-cleavage was 0. In the case of G7U A24G A25G G44A, the self-cleavage is reported as 0.1. Variant G7U A24G C42G has a self-cleavage of 0.03. In the case of G7U A24U A25C C42U, the self-cleavage is reported as 0.37. G7U A24U C31A G35C showed a self-cleavage of 0.05. Work on G7U A24U U28C yielded a self-cleavage of 0.02. Variant G7U A25C G29A G35C has a self-cleavage of 0.08. G7U A25G G27C C37A gave a self-cleavage of 0.01. With G7U A25G G33C U43A the self-cleavage was 0.02. With G7U A25G G33U the self-cleavage was 0.11. For G7U A25U A39U, the self-cleavage was 0.2. G7U A25U C31G showed a self-cleavage of 0.02. G7U A25U G33A C46U showed a self-cleavage of 0.09. For G7U A26C G36C C37U, the self-cleavage was 0.01. G7U A26C G40A showed a self-cleavage of 0.11. For G7U A26C U28A, the self-cleavage was 0.06. In the case of G7U A26G U34C C45A, the self-cleavage is reported as 0.07. Work on G7U A26U G29A U32C U38G yielded a self-cleavage of 0. Work on G7U A26U G33U G36A yielded a self-cleavage of 0.05. For G7U A26U U32G G36U, the self-cleavage was 0.06. G7U A39G C42U gave a self-cleavage of 0.02. G7U A39G C45G gave a self-cleavage of 0.3. With G7U A39U G44A the self-cleavage was 0.06. Variant G7U A41G C42G has a self-cleavage of 0.06. Variant G7U C8A A11C A26G has a self-cleavage of 0.02. In the case of G7U C8A A11C C15G C37U, the self-cleavage is reported as 0. For G7U C8A A14G A16G G27A G40A, the self-cleavage was 0.06. G7U C8A A14U G33U showed a self-cleavage of 0.35. Variant G7U C8A A26C G30U has a self-cleavage of 0.1. With G7U C8A C13U G19U G36U the self-cleavage was 0.07. Variant G7U C8A C18A has a self-cleavage of 0.34. For G7U C8A G19A G22U U38G, the self-cleavage was 0.01. With G7U C8A G19C G36C A39C the self-cleavage was 0.08. G7U C8A G19C U34C showed a self-cleavage of 0.09. For G7U C8A G21A, the self-cleavage was 0.45. With G7U C8A G29A C31U U32A the self-cleavage was 0.16. Work on G7U C8A G40C yielded a self-cleavage of 0.1. G7U C8A G40U gave a self-cleavage of 0.06. Work on G7U C8G A12G G30C yielded a self-cleavage of 0.02. G7U C8G A16C U34A showed a self-cleavage of 0.03. Work on G7U C8G A25U G44A yielded a self-cleavage of 0.04. With G7U C8G C10A A24U G40U the self-cleavage was 0.01. In the case of G7U C8G C13U U38C, the self-cleavage is reported as 0.19. G7U C8G C15A G29U gave a self-cleavage of 0.16. With G7U C8G C15G U43G the self-cleavage was 0. In the case of G7U C8G U9A G17C A25G, the self-cleavage is reported as 0.05. Work on G7U C8U A25C yielded a self-cleavage of 0.4. For G7U C8U A25C U38G G40C, the self-cleavage was 0.07. With G7U C8U C18A the self-cleavage was 0.3. Work on G7U C8U C18G C45A yielded a self-cleavage of 0.29. With G7U C8U G21C U38C the self-cleavage was 0.12. Variant G7U C8U G29U C46U has a self-cleavage of 0.28. Variant G7U C8U G36A has a self-cleavage of 1.33. Work on G7U C8U U28C C45G yielded a self-cleavage of 0.09. In the case of G7U C8U U28G G29C, the self-cleavage is reported as 0.04. For G7U C10A A11C A25G, the self-cleavage was 0. With G7U C10A A11U G17U U20C U34G G44C the self-cleavage was 0. With G7U C10A A12C the self-cleavage was 0. G7U C10A A14C U38A gave a self-cleavage of 0.02. For G7U C10A A14G G22C, the self-cleavage was 0.04. For G7U C10A A24G A39G, the self-cleavage was 0.01. G7U C10A A39U gave a self-cleavage of 0.04. In the case of G7U C10A C31A C37U, the self-cleavage is reported as 0.03. Work on G7U C10A G29U yielded a self-cleavage of 0.05. Variant G7U C10G C18U U20G has a self-cleavage of 0.02. For G7U C10G C37A, the self-cleavage was 0. G7U C10G G27A showed a self-cleavage of 0.02. G7U C10G U38G showed a self-cleavage of 0.01. For G7U C10U A12U C15A C18U, the self-cleavage was 0. G7U C10U A12U U43G G44U C45G showed a self-cleavage of 0.01. G7U C10U A14U gave a self-cleavage of 0.1. G7U C10U A14U C15U G30U G40A gave a self-cleavage of 0.39. With G7U C10U A24C U28G C31G U32A the self-cleavage was 0.01. G7U C10U C37A gave a self-cleavage of 0.05. G7U C10U G17A G29C C31U G33C C37G gave a self-cleavage of 0. G7U C10U G21U gave a self-cleavage of 0.04. With G7U C10U G29U A41G the self-cleavage was 0.02. Variant G7U C10U G30C U32A has a self-cleavage of 0.01. With G7U C10U G33U the self-cleavage was 0.08. G7U C10U U28C gave a self-cleavage of 0.01. G7U C13A A14G C31U U34C gave a self-cleavage of 0.13. For G7U C13A A16C A41U G44U, the self-cleavage was 0.21. For G7U C13A C15A, the self-cleavage was 0.69. Work on G7U C13A C18G G21A G30U yielded a self-cleavage of 0.05. Variant G7U C13A C31U C37A has a self-cleavage of 0.02. In the case of G7U C13A G17A C45U, the self-cleavage is reported as 0.08. For G7U C13A G27A C37G G40U C42G C46G, the self-cleavage was 0.1. For G7U C13A U20C A41C C45U, the self-cleavage was 0.25. In the case of G7U C13A U28C, the self-cleavage is reported as 0.08. G7U C13G A16U showed a self-cleavage of 0.04.
